Assay results published in the RNAGym collection of RNA variant scans (doi:10.1101/gad.245936.114).
This sample is rich in variants without activity.

B1: tRNA (parent)
chain: CUCUCGGUAGCCAAGUUGGUUUAAGGCGCAAGACUUUAAUUUAUCACUACGAAAUCUUGAGAUCGGGCGUUCGACUCGCCCCCGGGAGAUUUUUUCCUCGAGCAA

Variants of: B1
Assay: nonsense suppression (GFP-seq) (ratio to wild type); higher = more function; SUP4oc tRNA, yeast GFP reporter sort-seq
Outline: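 Nonsense suppression (GFPSEQ) is the median GFP/RFP ratio of each sorting bin, weighted by the variant's estimated share of cells in that bin and expressed relative to the unmutated parent tRNA. Yeast strains carried genome-integrated variants of an ochre-suppressor tRNA from a library with ~3% random mutations, plus a galactose-driven GFP ochre reporter and RFP, and were grown in raffinose/galactose medium containing 80 mg/L adenine. Cells were sorted into GFP/RFP bins, each bin was Illumina-sequenced (phred ≥30), and variants were kept only with ≥100 reads and ≥30 cells.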

CUCUCGGUAGCCCAGUUGGUUUAAGGCGCAAGACUUUAAUUUAUCACUACGAAAUCUUGAGAUCGGGGGUUCGACUCGCCCCCGGGAAAUUUUUUCCUCGAGCAA [A13C C68G G88A] and CUCUCGGUAGCCCAGUUGGUUUAAGGCGGAUGACUUUAAUUUAUCACUACGAAAUCUUGAGAUCGGUCGUUCGACUCGCCCCCGGGAGAUUUUUUCCUCGAGCAA [A13C C29G A31U G67U] cannot be ordered by nonsense suppression: at most 0.026 for the first, at most 0.026 for the second.

CUCUCGGUAGCCCAGUUGCUUUAAGGCGCAAGACUUUAAUUUAUCACUACGAAAUCUUGAGAUCGGGCGUUCGACUCGCCCCCGGGAGAUUUUUUCCUCGAGCAA [A13C G19C] and CUCUCGGUAGCCCAGUUGGUUUAAGGCGCAAUACUUUAAUUUAUCACUACGAAAUCUUGAGGUCGGGCCUUAGACUCGCCCCCGGGAGAUUUUUUCCUCGAGCAA [A13C G32U A62G G69C C72A] cannot be ordered by nonsense suppression: at most 0.026 for the first, at most 0.026 for the second.

Compared with CUCUCGGUAGCCCAGUUGGUUUAAGGCGCAAGACUUUAAUUUAUCACUACGAAAUCUUGAGAUCGGGCGUUCGAAUCGCCCCCGGGAGAUUUUUUCCUCGAGCAA [A13C C75A], CUCUCGGUAGCCCAGUUGGUUUAAGGCGCAAGACUUUAAUUUAUCACUACGAAAUCUUGAGAUCGGGCGUUCGAGUCGCCCCCGGGAGAUUUUUUCCUCGAGCAA [A13C C75G] is higher in nonsense suppression: 1.09 for the first, 1.15 for the second.

CUCUCGGUAGCCCAGUUGGUUUAAGGCGUAAGACUUUAAUUUAUCACUACGAAAUCUUGAGCUCGGGCGUUCGACUCGCCCCCGGGAGAUUUUUUCCUCGAGCAA [A13C C29U A62C] and CUCUCGGUAGCCCAGUUGGUUUAAGCCGCUAGACUUUAAUUUAUCACUACGAAAUCUUGAGAUCGGGCGUUCGACUCGCCCCCGGGAGAUUUUUUCCUCGAGCAA [A13C G26C A30U] cannot be ordered by nonsense suppression: at most 0.026 for the first, at most 0.026 for the second.

First: CUCUCGGUAGCCCAUUUGGUUUAAGGCGCAAGACUUUAAUUUAUCACUACGAAAUCUUGAGAUCGGGCGUUCGGCUCGCCCCCGGGAGAUUUUUUCCUCGAGCAA [A13C G15U A74G]
Second: CUCUCGGUAGCCCAGUUGGUUUAAGGCGCAAGACUUUAAUUUAUCACUACGAAAUCUUGUGAUCGGGCGUUCGACUCGCCCCCGGGAGAUUUUUUCCUCGAGCAA [A13C A60U]
The nonsense suppression of the first is lower: at most 0.026 for the first, 1.07 for the second.

CUCUCGGUAGCCCAGUUUGUUUAAGGCGCAAGACUUUAAUUUAUCACUACGAAAUCUUGACAUCGGGCGUUCGACUCGCCCCCGGGAGAUUUUUUCCUCGAGCAA [A13C G18U G61C] and CUCUCGGUAGCCCAGUUGGUUUAAGGCGCAAGACUUUAAUUUAUCACUACGAAAUCUUGGGUUCGGGCGUUCGACUCGCCCCCGGGAGAUUUUUUCCUCGAGCAA [A13C A60G A62U] cannot be ordered by nonsense suppression: at most 0.026 for the first, at most 0.026 for the second.

CUCUCGGUAGCCCAGUUGGUUUAAGGCGCAUGACUUUAAUUUAUCACUACGAAAUCUUGACAUCGGGCGUUCGACUCGCCCCCGGGAGAUUUUUUCCUCGAGCAA [A13C A31U G61C] and CUCUCGGUAGCCCAGUUGGUUUAAGGCGCAAGACUUUAAUUUAUCACUACGAAGUCUUGAGAUCGGGCGGUCGACUCGCCCCCGGGAGAUUUUUUCCUCGAGCAA [A13C A54G U70G] cannot be ordered by nonsense suppression: at most 0.026 for the first, at most 0.026 for the second.

First: CUCUCGGUAGCCCAGUUGGUUUAAAGCGCAAGACUUUAAUUUAUCACUACGAAAUCUUGAGAUCGGGCGUUCGACUCGCCCCCGGGAGAUUUUUUCCUCGAGCAA [A13C G25A]
Second: CUCUCGGUAGCCCAAUUGGUUUAAGGCGCAAGACUUUAAUUUAUCACUACGAAAUCUUGAGAUCGGGCGCUCGACUCGCCCCCGGGAGAUUUUUUCCUCGAGCAA [A13C G15A U70C]
The nonsense suppression of the first is higher: 0.0288 for the first, at most 0.026 for the second.

CUCUCGGUAGCCCAGUUGGUUUAAGGGGCAAGACUUUAAUUUAUCACUACGAAAUCUUGAGAUCGGGCGUUCGACUCUCCCCCGGGAGAUUUUUUCCUCGAGCAA [A13C C27G G78U] and CUCUCGGUAGCCCAGUUGGUUUAAGGCGCACGACUUUAAUUUAUCACUACGAAAUCUUGAGAUCGGGCGUUCGACACGCCCCCGGGAGAUUUUUUCCUCGAGCAA [A13C A31C U76A] cannot be ordered by nonsense suppression: at most 0.026 for the first, at most 0.026 for the second.

CUCUCGGUAGCCCAGUUGGUUUAUGGGGCAAGGCUUUAAUUUAUCACUACGAAAUCUUGAGAUCGGGCGCUCGACUCGCUCCCGGUAUAUUUUUUCCUCGAGCAA [A13C A24U C27G A33G U70C C80U G86U G88U] and CUCUCGGUAGCCCAGUUGGUUUAAGCCGCAAGACUUUAAUUUAUCACUACGAAAUCUUGAGAUCGGGCGUUCGACUCUCCCCCGGGAGAUUUUUUCCUCGAGCAA [A13C G26C G78U] cannot be ordered by nonsense suppression: at most 0.026 for the first, at most 0.026 for the second.

CUCUCGGUAGCCCAUUUGGUUUAAGGCGCAAGACUUUAAUUUAUCACUACGAAAUCUUGAGAUUGGGCGUUCGACUCGCCCCCGGGAGAUUUUUUCCUCGAGCAA [A13C G15U C64U] and CUCUCGGUAGCCCAGUUGGUUUAAGGGGCAAGACUUUAAUUUAUCACUACGAAAUCAUGAGAUCGGGCGUUCGACUCGCCCCCUGGAGAUUUUUUCCUCGAGCAA [A13C C27G U57A G84U] cannot be ordered by nonsense suppression: at most 0.026 for the first, at most 0.026 for the second.

CUCUCGGUAGCCCAGUUGGUUUAAGGCGCAAGACUUUAAUUUAUCACUACGAAAUCUUUAGAUCGGGCGUUCGACUCGCCCCCGGGAGAUUUUUUCCUCGAGCAA [A13C G59U] and CUCUCGGUAGCCCAGUUGGUUUAAGGCGCAAGACUUUAAUUUAUCACUACGAAAUCUUCAGAUCGGGCGUUCGACUCGCCCCCGGGAGAUUUUUUCCUCGAGCAA [A13C G59C] cannot be ordered by nonsense suppression: at most 0.026 for the first, at most 0.026 for the second.

CUCUCGGUAGCCCAGUUGGUUUAAGGCGCAAGAUUUUAAUUUAUCACUACGAAAUCUUGAGAUCGGGCGUUCGACUCGCCCCCGGGAGAUUUUUUCCUCGAGCAA [A13C C34U] and CUCUCGGUAGCCCAGUUGGUUUAAGGCGAAAGCCUUUAAUUUAUCACUACGAAAUCUUGAGAUCGGGCGUUCGACUCGCCCCCGGGAUAUUUUUUCCUCGAGCAA [A13C C29A A33C G88U] cannot be ordered by nonsense suppression: at most 0.026 for the first, at most 0.026 for the second.

With CUCUCGGUAGCCCAGUUGGUUUAAGGCGCAAGUCUUUAAUUUAUCACUACGAAAUCUUGAGAUCGGGCGUUCGACUCGCCCCCGGGAGAUUUUUUCCUCGAGCAA [A13C A33U] the nonsense suppression was 0.0508.
